# PubChem BioAssay (Tox21)
# Several values for one entry are separate records, joined by “and”; a condition that tells them apart may be missing. Identical values can stand only once. The inconclusive results got no clear call from the source; some entries with a clear call stand among them for comparison. A potency beside an inconclusive call is a rough fit, not a confirmed value. Activity calls are given as the source filed them. Unless noted, the call rests on the fitted dose curve; in most records, active means well fitted cell-killing curve with a large enough effect in the repeat runs; inconclusive means weak or mixed curves; inactive means no such curve, though single readings can be large or run the other way.
# Molecular target: Peroxisome proliferator-activated receptor delta (Homo sapiens) (UniProt Q03181)
# Sequence of UniProt Q03181 (Q03181 whole entry, looked up): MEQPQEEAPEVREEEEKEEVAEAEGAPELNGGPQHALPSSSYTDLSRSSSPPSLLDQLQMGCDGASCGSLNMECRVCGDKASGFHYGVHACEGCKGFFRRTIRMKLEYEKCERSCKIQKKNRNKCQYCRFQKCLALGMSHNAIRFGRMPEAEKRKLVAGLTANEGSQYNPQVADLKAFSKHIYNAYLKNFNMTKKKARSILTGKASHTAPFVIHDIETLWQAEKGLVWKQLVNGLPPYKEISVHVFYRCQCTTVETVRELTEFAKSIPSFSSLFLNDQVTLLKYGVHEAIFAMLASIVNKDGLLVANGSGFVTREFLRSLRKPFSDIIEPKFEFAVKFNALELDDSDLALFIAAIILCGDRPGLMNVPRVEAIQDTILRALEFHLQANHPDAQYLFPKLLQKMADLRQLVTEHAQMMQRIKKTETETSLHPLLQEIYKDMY
# Assay: qHTS assay to identify small molecule agonists of the peroxisome proliferator-activated receptor delta (PPARd) signaling pathway (AID 743212; calls by dose curve;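 further: HEK293H cells with PPARd UAS beta-lactamase reporter GeneBLAzer system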)
# Settings: HEK293H PPARd-UAS-bla, beta-lactamase FRET ratio, 17 h; activation: at 62.6 µM (top of the series) unless noted
# Procedure, shortened: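 GeneBLAzer UAS-bla HEK293H cells carrying a PPARδ construct were exposed to compounds at 37 °C. Beta-lactamase activity was read by FRET fluorescence after 2 h at room temperature with LiveBLAzer B/G substrate.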
# On the % scale 0 is the no-effect control and ±100 the full control effect; potency means the concentration at half of the fitted maximal effect; tags describe the fitted curve by direction and shape.
SMILES,Potency,activation
CCCCCCCCCCCCCCCCN,inconclusive: 33.5 µM,–
F[Si-2](F)(F)(F)(F)F,–,inactive: 2.23%
CN1C(C)(C)CC(O)CC1(C)C,–,inactive: -0.595%
CNC(=O)c1c(I)c(NC(C)=O)c(I)c(C(=O)O)c1I,–,inactive: -2.14%
CN1CCN(C2=Nc3ccccc3Oc3ccc(Cl)cc32)CC1,"inconclusive: 33.5 µM [rising, partial curve, poor fit]",–
CC1(C)[C@@H]2CC[C@@]1(C)C(=O)C2,inactive,–
C=CCOc1cc(Cl)ccc1C(=O)NCCN(CC)CC,"inconclusive: 13.3 µM [rising, single point]",–
C[C@]12C=CC(=O)C=C1[C@@H](F)C[C@@H]1[C@@H]2[C@@H](O)C[C@@]2(C)[C@H]1CC[C@]2(O)C(=O)CO,–,inactive: -1.26%
Cc1cc(C)c(N)c(Cl)c1,–,inactive: 3.99%
O=c1[nH][nH]c2ccccc12,–,inactive: 0.478% [at 81.1 µM]
CN1CCC(=C2c3ccccc3CCc3cccnc32)CC1,–,inactive: -3.29%
OC[C@H]1O[C@@](CO)(O[C@H]2O[C@H](CO)[C@@H](O)[C@H](O)[C@H]2O)[C@@H](O)[C@@H]1O,inactive,–
O=C(O)c1c2ccccc2cc2ccccc12,–,inconclusive: 3.84%
CC(C)(c1ccc(Oc2ccc3c(c2)C(=O)OC3=O)cc1)c1ccc(Oc2ccc3c(c2)C(=O)OC3=O)cc1,–,inconclusive: 0.532%
NCC1CCC(C(=O)Oc2ccc(CCC(=O)O)cc2)CC1 (stereo not drawn),"inconclusive: 0.0944 µM [rising, partial curve]",–

# Tested on: not listed separately
# Assay: qHTS assay to identify small molecule antagonists of the peroxisome proliferator-activated receptor delta (PPARd) signaling pathway - cell viability counter screen (AID 743213); further: nearly all actives have a fitted effect of over 50% in size
# Settings: PPARd-bla HEK293H viability, CellTiter-Glo luminescence, 17 h; viability change, negative = cytotoxic: at 62 µM (top of the series) unless noted
# Procedure, shortened: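 Viability counter-screen, qHTS format: PPARd-bla HEK293H, L165041 300 nM final, 17 h compound exposure at 37 C, CellTiter-Glo luminescence after 30 min RT.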
SMILES,Potency,"viability change, negative = cytotoxic"
CCCCCC/C=C/C=O,"inconclusive: 43.6 µM [cytotoxic, partial curve, poor fit]",–
Cc1ccc(/C(=C\CN2CCCC2)c2ccccn2)cc1,"inconclusive: 18.3 µM [cytotoxic, full curve] and inconclusive: 18.8 µM [cytotoxic, partial curve, poor fit]",–
Cc1c(I)c(=O)n(-c2ccccc2)n1C,–,inactive: -10.2%
CC(C)(C)NCCO,–,inactive: 16.8%
CN1CCN(C2=Nc3ccccc3Oc3ccc(Cl)cc32)CC1,"inconclusive: 0.0084 µM [cytotoxic, full curve, poor fit]",–
O=C(C(=O)c1ccc(Br)cc1)c1ccc(Br)cc1,–,inactive: -9.05% [at 28.9 µM]
CC1(C)[C@@H]2CC[C@@]1(C)C(=O)C2,–,inconclusive: 1.14% [cytotoxic]
C=CCOc1cc(Cl)ccc1C(=O)NCCN(CC)CC,inconclusive: 13.3 µM [cytotoxic],–
COc1ccc(N)c(OC)c1,"inconclusive: 0.188 µM [cytotoxic, full curve, poor fit]",–
C[C@]12C=CC(=O)C=C1[C@@H](F)C[C@@H]1[C@@H]2[C@@H](O)C[C@@]2(C)[C@H]1CC[C@]2(O)C(=O)CO,"inconclusive: 1.88 µM [rising, full curve, poor fit]",–
CCN(CC)CCNC(=O)c1cc(Br)c(N)cc1OC,–,inconclusive: 1.08% [cytotoxic]
C=CC(C)CCC=C(C)C (stereo not drawn),–,inconclusive: -21% [cytotoxic]
Cc1ccc(C)c(OCCCC(C)(C)C(=O)O)c1,"inconclusive: 15.6 µM [cytotoxic, partial curve, poor fit] and inactive",–
CN(C)CCN(Cc1ccc(Cl)cc1)c1ccccn1,inconclusive: 13.3 µM [cytotoxic],–
CCCC(=O)OC/C=C(\C)CCC=C(C)C,–,inactive: -5.97%
C[C@H]1C[C@H]2[C@@H]3CCC4=CC(=O)C=C[C@]4(C)[C@H]3C(=O)C[C@]2(C)[C@@]1(O)C(=O)CO,"inconclusive: 13.3 µM [cytotoxic, single point]",–
O=C(O)c1c2ccccc2cc2ccccc12,–,inactive: 0.327%
CCc1cnc(C(=O)O)c(C(=O)O)c1,–,inactive: -2.04% [at 80.4 µM]
